# Some structures have more than one record in an assay (separate samples or runs), and their calls can disagree.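 96-well plates, one dose, 48 hours. Percent growth reported; active if below 10.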 A number of entries come with more than one value. This is not the full list of results. The source may hold further records. This drug was run again and again over the years, at the concentration stated with the values; each value is one run. Brackets with × count equal records among those shown.
# Tested on: EKVX NSCLC
# Test: NCI-60 one-dose screen, 48 h (100 = growth as untreated, 0 = no growth, -100 = all killed)
structure (smiles),measurement,setting,value
COc1cccc2c1C(=O)c1c(O)c3c(c(O)c1C2=O)C[C@@](O)(C(=O)CO)C[C@@H]3OC1CC(N)C(O)C(C)O1 (stereo not given in full),growth,"0.25 µM, runs of 2010","inactive: 84.7, 91.2, 80.5, 91.9, 80.3, 86.9, 77.8, 88.1, 83.7, 69.8, 72.5, 76.3, 69.9, 86.2, 92.5, 82 (2×), 92.1 (2×), 103, 96.3, 89.7, 99.7, 87, 96.6, 96.8, 96.4, 92.3, 96.1, 97.6, 98.2, 95.5, 93.5, 70.8, 71.8, 71.1, 84.5, 83.4, 73.5, 83, 72, 82.4, 86.1, 78.3, 85.4, 76.5, 86.8, 94.1, 94.9, 86.6, 91.6, 89, 82.6, 91.5, 86.4%"
same,growth,"0.25 µM, runs of 2011","inactive: 96.1, 88.9, 72.7, 67.8, 84.5, 89.5, 94.9 (2×), 88, 85.6, 86.9 (2×), 95.3, 90, 86.4, 86.8, 84.8, 79, 87.6, 89.1, 91.2 (2×), 88.1 (2×), 88.3, 90.2, 94, 87.1, 98.6, 97.5, 85.4 (2×), 74.9, 91.3, 92.3 (2×), 80.1, 78.4, 84.1, 81.9, 73.1, 63, 68.7, 81.5, 73.6, 73.9, 79.4, 82.4, 82.6, 83.4, 85, 80.3, 95.2, 68.5, 87.3, 96.6, 97.6, 89.7, 92, 74, 61.4, 60.2%"
same,growth,"0.25 µM, runs of 2012","inactive: 82.5, 74.4, 84.8, 76, 77, 87.5, 83.3 (2×), 90.4, 96.8, 86.5, 78.4, 86, 88, 69.3, 74.7, 82.4, 83.5%"
same,growth,"0.25 µM, runs of 2014","inactive: 64.7, 71.5, 69.5, 68.9, 80.8, 80.1 (2×), 79, 82.5, 85.6 (2×), 87, 85.5, 83, 88.8 (2×), 86, 81.9, 85, 86.2, 84.3, 81.7 (2×), 82.8, 84.5, 83.2, 87.3, 78.2 (3×), 80.4, 76.3, 75.7, 64.1 (2×), 63, 68, 75.8, 65.2, 65.6, 84.9, 74.6, 77.4, 75.6, 79.6, 67.1, 74.4, 73.2, 85.2, 75.9, 82.9, 87.6, 83.5, 90.6, 74.8, 82, 93.1, 75.4, 70.9, 81.2%"
same,growth,"0.25 µM, runs of 2015","inactive: 77.5 (2×), 80.3, 83.9, 80.5 (2×), 87.2, 81.2, 87, 86.2, 84.7, 90.3, 96.7, 80.6, 75.7, 85.7, 69.2 (2×), 80.4, 82.4, 91, 86.9, 83.3, 66.4, 62.3, 63.9, 69.8 (2×), 66.5, 75.1, 65.2, 67.3, 69.9, 69.7 (2×), 63.4, 64.5, 65.6, 61.7, 54.2, 60.9, 55.4, 49.6, 58.4, 61, 46.2, 50.9, 45.8, 50.5, 61.6, 75.3, 55.2, 60 (2×), 65.7, 56, 63.8, 69.1, 74.3, 69.4, 59.8, 68.4 (2×), 72.4, 70.7, 69.3, 63.3, 67.6, 62.5, 59.9, 67.8, 72.2, 62.2, 68.6, 62.7, 65.4, 64.9, 63.7%"
same,growth,"0.25 µM, runs of 2016","inactive: 72.9 (2×), 68.8, 69.7 (2×), 80, 78.6, 76.1 (2×), 73.5 (2×), 74.2, 66.5, 74.1, 68.2 (2×), 71.4, 60.6, 70.7, 76.7, 59.1 (2×), 56.3, 56.8, 52.7, 60.8, 65.2, 60.1 (2×), 64, 61.1, 59.4, 62.3, 63 (2×), 55.2, 58.9, 56.9, 57, 59.3 (2×), 63.4, 61.3 (2×), 68, 70.8, 68.4, 66.2, 60.9, 63.6, 56.6, 56.2, 57.7, 53.4, 57.5, 62, 58.3, 66.3, 65.4, 76.8, 74.3, 76, 75.9, 72.5, 75.8, 76.3, 73.6, 78, 83.4, 85.4, 74.6, 72.1, 69.5, 71.9, 69.1, 64.3, 70.2, 61.8, 67.2, 67.8% (2×)"
same,growth,"0.25 µM, runs of 2017","inactive: 71.4, 76.6, 64.7, 66.6 (2×), 70.2 (3×), 73.1 (2×), 67.1, 66.5, 64, 69.3 (2×), 67.5, 68.7, 67.4 (2×), 66, 79.1, 75.4, 76.5, 74.9, 81.2 (3×), 77.7 (2×), 80.9 (3×), 73.2, 76.3, 74.3, 77.4, 47, 58, 60.1, 65.1, 64.3, 62.2, 65.2, 69.6, 53.4, 62.6, 71.8, 74.2, 67.7, 67.2, 71.1, 70.7, 66.9, 60.4, 60.9, 63.3 (2×), 65, 64.5, 77, 83.3, 74.8, 81.4, 79.4, 82.9, 79 (2×), 84.2, 86.1, 75.9, 72.7, 78.1, 83.8, 79.3%"
same,growth,"0.25 µM, runs of 2018","inactive: 72.6, 73.1, 69 (3×), 70.9, 79.7, 74.8, 73.9, 77.4 (2×), 73.3, 70.8, 77.3, 76.7, 89.3, 85.3, 86.4, 89.4, 87.3, 78.9 (2×), 68.5, 64.7, 64.5, 79.3, 83, 89.7, 91.8, 88, 88.2, 62.8, 63.2, 66.3, 65.2, 63.8, 61.8, 66.2, 70.2, 74.5, 72.5, 80.4, 83.9, 88.3, 87.9, 98.8, 95.1, 93.1, 70.3, 72.1%"
same,growth,"0.25 µM, runs of 2019","inactive: 42.9, 63 (2×), 55.7, 58, 54.8, 56.8, 61.1, 68.3, 82, 79.6, 80.5, 72.5, 78.1 (2×), 74.2 (2×), 71.8, 71.1, 74.1 (2×), 61.4, 64.9, 64.5, 66, 69.7, 67.2, 72.4, 77.9, 70.2, 78.4, 73.2, 78.3, 53.4, 60.3, 61.7, 64.1 (2×), 66.6, 69.9, 68.5, 69.2%"
same,growth,"0.25 µM, runs of 2020","inactive: 59, 58, 64.8, 66.6, 63.4, 65.7, 66.1, 75.5, 74, 77.4, 61.2, 79.1, 83.1, 93.5, 79.3, 85, 92.3, 82.5, 83.5, 90.6, 68.3, 68.7, 59.5%"
same,growth,"0.25 µM, runs of 2021","inactive: 62.7, 71.8, 62.5, 76.3, 78.3, 73.9, 68.9 (2×), 70.9, 69.7 (2×), 69.9, 67.9, 68.2, 72.4, 64.3, 57.1, 56.6, 63.4 (2×), 62.2, 59.6, 63.6, 66.2, 67.6 (2×), 60.8, 76.9, 83.5, 81.5 (2×), 79.1, 47.2, 54.6, 65, 62, 61.8, 72.2, 66.3, 69.4, 78, 72.3, 69, 75.8, 66.7, 57.4, 65.4, 82.5, 49.9, 43.5, 57.6, 58.1, 58.7%"
same,growth,"0.25 µM, runs of 2022","inactive: 24.3, 24.4, 59.1, 59.4, 19.3, 71.1, 55, 72.5, 71, 82, 77.9, 89.6, 38.5, 40.3, 45.1, 78.1, 83.9, 81.2, 75.5, 89, 50.2, 49.2, 52.4, 53.2, 47%"
same,growth,"25 µM, runs of 1991","active: -24.2, -29.4, -28.8, -31.2, -67, -27.8, -32.8, -33.1, -22, -65.8, -35.2, -29, -30.8, -22.4, -20.8, -51.6, -9.02, -25.8%"
same,growth,"25 µM, runs of 1992","active: -38.4 (3×), -19.5, -21.6 (2×), -34.7, 0.246, -5.98, -14.4, -32, -42.3, -34.9 (2×), -18.5, -44.2, -31.2, -42.1, -7.73, -29.5, -36.3, 1.99, -20.7, -26.6, -35.5 (2×), -43.3, -29.3, -23.2, -37.8, 4.43, -28.5, -31.5, -68.7, -17.7, -25, -0.64, -21.1, -19.3 (2×), -21.8, -36.8, -19.2, -29, -22.6, -65.4, -55.9, -11, -65.9, -33.6, -19.6, -23.5, -26.9, -61.5, -70.5, -74.5, -21.4, -32.9, -24.1, -61, -55.1, -18.2, -25.2, -54.9, -50.6, -75.1, -27.9, -42.6, -18.3 (2×), -34.3, -20.8, -62.1, -40.6, -69.5, -67.3, -47.5, -6.08, -33.5, -27.5, -26.1, -22, -23.8 (2×), -45.1, -55.4, -35.3, -46.6, -51.3, -54.3, -13, -53.4, -13.8, -52.4, -39.4, -43.6 (2×), -46.5, -30.1, -6.77, -22.5, -47.1, -41 (2×), -65.8, -43.4, -93.5, -27.8, -18.1, -27 (2×), -42.2, 5.75, -38.2% and inactive: 98.4%"
same,growth,"25 µM, runs of 1993","active: -26.7, -12.7, -28.2, -44.4, 6.35, -56.8, -36.6, -48.2, -40.3, -7.5, 6.68, -26.9, -5.05, -12.1, -13.8, -37.3 (2×), -53.4, -42.4, -18.6, -7.12, -12.8, -38.3, -7.07, -17.3, 0.823, -38.7, 6.43, -21.3, -5.74, -35.1, -51.6, 4.54, -8.54, -24.3, -51.5, -11.7, -31.1, -40.8, -33.3, -44%"

# — PubChem BioAssay (NCI)
